# Source: a collection of fitness landscapes (doi:10.1016/j.celrep.2020.107928)
# Whole data set: some 81,000 sequences, median “one-hybrid fitness for binding parS DNA” near -0.17, cut for the highest 2% near 0.51. Some of the results follow.
# B1: Caulobacter ParB omega fusion; a variant is named by its letters at X, in order, B8GW30 (parent)
# chain: MESVVVGEPGMSEGRRGLGRGLSALLGEVDAAPAQAPGEQLGGSREAPIEILQRNPDQPRRTFREEDLEDLSNSIREKGVLQPILVRPSPDTAGEYQIVAGERAWRAAQRAGLKTVPIMVRELDDLAVLEIGIIENVQRADLNVLEEALSYKVLMEKFERTQENIAQTIGKSXSHVANXMRLLXLPDEVQSYLVSGELTAXHARAIAAAADPVALAKQIIEGGLSVRETEALARKAPNLSAGKSKGGRPPRVKDTDTQALESDLSSVLGLDVSIDHRGSTGTLTITYATLEQLDDLCNRLTRGI
# Variants of: B1
# Test: one-hybrid fitness for binding parS DNA (scaled: cognate 1, non-cognate 0); higher = stronger binding
# Settings: with parS DNA site
# How it was run: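 Values were rescaled so that cognate is 1 and non-cognate is 0. Each is a fitness, the log change in a variant's read ratio to wild type from Illumina reads of plasmids before and after selection, with three replicate libraries pooled and variants under 10 reads dropped. Selection of the Caulobacter ParB libraries, four specificity codons randomised, used E. coli USO with a HIS3 reporter, site 19 bp from the promoter, on M9-minus-histidine with 0.1 mM IPTG and 5 mM 3-AT for 48 hours at 37°C.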
row,Variant,one-hybrid fitness for binding parS DNA
1,GSTG,≤ 0.2
2,YNSG,≤ 0.2
3,EGTG,≤ 0.2
4,QYKL,≤ 0.2
5,FACR,≤ 0.2
6,IFHT,≤ 0.2
7,GPAP,≤ 0.2
8,MAWG,≤ 0.2
9,RQRP,≤ 0.2
10,CLGI,≤ 0.2
11,QQHE,≤ 0.2
12,TLYG,≤ 0.2
13,AQWR,≤ 0.2
14,CRRD,≤ 0.2
15,EMWC,≤ 0.2
16,HMIF,≤ 0.2
17,HWKG,≤ 0.2
18,GRVV,≤ 0.2
19,QARL,≤ 0.2
20,AGSR,≤ 0.2
21,ASNM,≤ 0.2
22,RKHM,0.21
23,CMQG,≤ 0.2
24,NAPM,≤ 0.2
25,FWEW,≤ 0.2
26,TMYV,≤ 0.2

row,Variant,one-hybrid fitness for binding parS DNA
1,QYKT,≤ 0.2
2,RVWF,0.25
3,VIIC,≤ 0.2
4,TSPP,≤ 0.2
5,QTQI,≤ 0.2
6,QCWS,≤ 0.2
7,CYMQ,≤ 0.2
8,YLRF,≤ 0.2
9,RTQC,0.974
10,QTDF,≤ 0.2
11,PAFG,≤ 0.2
12,NVFR,≤ 0.2
13,HNSK,≤ 0.2
14,SLSE,≤ 0.2
15,DHGR,≤ 0.2
16,AHPE,≤ 0.2
17,TPQS,≤ 0.2
18,LLDT,≤ 0.2
19,YQCV,≤ 0.2
20,NTKH,≤ 0.2
21,MWYR,≤ 0.2
22,VMPG,≤ 0.2
23,GGAS,≤ 0.2
24,CCTY,≤ 0.2
25,TRHT,≤ 0.2
26,VLFM,≤ 0.2

row,Variant,one-hybrid fitness for binding parS DNA
1,QYPE,≤ 0.2
2,RDNM,≤ 0.2
3,LMSG,≤ 0.2
4,PPSH,≤ 0.2
5,NNEA,≤ 0.2
6,SHSI,≤ 0.2
7,YDAI,≤ 0.2
8,YAPT,≤ 0.2
9,GDAS,≤ 0.2
10,DLTP,≤ 0.2
11,TPVK,≤ 0.2
12,NGPA,≤ 0.2
13,AGVC,≤ 0.2
14,SKWH,≤ 0.2
15,DSWG,≤ 0.2
16,QDPT,≤ 0.2
17,NVRF,≤ 0.2
18,VLYV,≤ 0.2
19,MTCD,≤ 0.2
20,LARW,≤ 0.2
21,WRTS,≤ 0.2
22,TDQT,≤ 0.2
23,YHSC,≤ 0.2
24,NHPE,≤ 0.2
25,DFTT,≤ 0.2
26,EENK,≤ 0.2

row,Variant,one-hybrid fitness for binding parS DNA
1,EQNW,≤ 0.2
2,AMIG,≤ 0.2
3,AEKC,≤ 0.2
4,KYYC,≤ 0.2
5,RHMA,0.503
6,SQPS,≤ 0.2
7,SRAY,≤ 0.2
8,TVAD,≤ 0.2
9,QGIG,≤ 0.2
10,QWSC,≤ 0.2
11,IDAK,≤ 0.2
12,SWHY,≤ 0.2
13,AYDR,≤ 0.2
14,PGSR,≤ 0.2
15,FNNG,≤ 0.2
16,LEST,≤ 0.2
17,CISS,≤ 0.2
18,TVKH,≤ 0.2
19,KLDL,≤ 0.2
20,PISG,≤ 0.2
21,RFEA,0.454
22,TRKH,≤ 0.2
23,QFPS,≤ 0.2
24,LNPD,≤ 0.2
25,DLYL,≤ 0.2
26,PNLR,≤ 0.2

row,Variant,one-hybrid fitness for binding parS DNA
1,ITSK,≤ 0.2
2,HKFS,0.207
3,QGVA,≤ 0.2
4,LGYN,≤ 0.2
5,RVMI,≤ 0.2
6,LQIN,≤ 0.2
7,DEWS,≤ 0.2
8,SEPA,≤ 0.2
9,IEYR,≤ 0.2
10,QHMT,≤ 0.2
11,IINW,≤ 0.2
12,VYRP,≤ 0.2
13,TNMC,≤ 0.2
14,YPAA,≤ 0.2
15,RKAD,≤ 0.2
16,CRKT,≤ 0.2
17,ISNG,≤ 0.2
18,HIEK,≤ 0.2
19,YLCY,≤ 0.2
20,ERRV,≤ 0.2
21,PAKC,≤ 0.2
22,STPT,≤ 0.2
23,TFQK,≤ 0.2
24,SIYF,≤ 0.2
25,QRWT,≤ 0.2
26,LKQP,≤ 0.2

row,Variant,one-hybrid fitness for binding parS DNA
1,YCIW,≤ 0.2
2,CEQS,≤ 0.2
3,RKHQ,≤ 0.2
4,LLAN,≤ 0.2
5,ECTS,≤ 0.2
6,KNRV,≤ 0.2
7,DSYD,≤ 0.2
8,QPQT,≤ 0.2
9,AQHL,≤ 0.2
10,ITYG,≤ 0.2
11,PMSM,≤ 0.2
12,RSQW,0.247
13,ELDL,≤ 0.2
14,CTGH,≤ 0.2
15,MLNE,≤ 0.2
16,HYTD,≤ 0.2
17,SMAI,≤ 0.2
18,RYYQ,≤ 0.2
19,VSYC,≤ 0.2
20,IQCS,≤ 0.2
21,AITE,≤ 0.2
22,RYHS,0.921
23,MLYS,≤ 0.2
